The source of these data is patent US9556117B2, “Indole carboxamide derivatives as P2X7 receptor antagonists” (ACTELION PHARMACEUTICALS LTD, priority 2012, dated 2017).

This assay has as its target human recombinant P2X7 receptor (Homo sapiens (Human), UniProt Q99572). Description: YO-PRO1 assay, P2X7 receptor antagonistic activity. To be noted: HEK-293 cells expressing human recombinant P2X7 receptor; YO-PRO-1 fluorescence; ATP 250 μM for 90 minutes.

The structures appear in SMILES notation.

UniProt Q99572, sequence (Q99572 whole entry): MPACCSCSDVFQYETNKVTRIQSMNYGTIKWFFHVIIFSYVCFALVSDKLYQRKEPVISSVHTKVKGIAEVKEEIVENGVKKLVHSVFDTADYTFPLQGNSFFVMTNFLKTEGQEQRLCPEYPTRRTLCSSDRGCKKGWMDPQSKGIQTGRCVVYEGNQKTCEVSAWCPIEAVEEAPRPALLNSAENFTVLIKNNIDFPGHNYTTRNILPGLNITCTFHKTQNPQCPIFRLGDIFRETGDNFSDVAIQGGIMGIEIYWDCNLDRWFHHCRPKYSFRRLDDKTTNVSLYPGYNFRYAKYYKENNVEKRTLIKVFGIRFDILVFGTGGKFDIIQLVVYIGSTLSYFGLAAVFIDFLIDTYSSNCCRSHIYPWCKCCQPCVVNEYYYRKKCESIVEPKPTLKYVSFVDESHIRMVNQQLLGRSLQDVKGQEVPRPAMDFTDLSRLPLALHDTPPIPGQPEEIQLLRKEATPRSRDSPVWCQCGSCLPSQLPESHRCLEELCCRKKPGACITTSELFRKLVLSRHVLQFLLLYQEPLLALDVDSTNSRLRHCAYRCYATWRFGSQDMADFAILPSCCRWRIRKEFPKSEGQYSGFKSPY

By IC50 is commonly meant the midpoint of a concentration-inhibition curve. As to `O=C(N[C@H](CO)C1CCCCC1)c1ccc2[nH]ccc2c1Cl` [Example 1, 4-Chloro-1H-indole-5-carboxylic acid ((S)-1-cyclohexyl-2-hydroxy-ethyl)-amide], the IC50 was found to be 13 nM.
For `O=C(NCC1(O)CCCCC1)c1ccc2[nH]ccc2c1Cl` [Example 2, 4-Chloro-1H-indole-5-carboxylic acid (1-hydroxy-cyclohexylmethyl)-amide], the IC50 turned out to be 35 nM.
Regarding `O=C(NCC1(O)CCCCCC1)c1ccc2[nH]ccc2c1Cl` [Example 3, 4-Chloro-1H-indole-5-carboxylic acid (1-hydroxy-cycloheptylmethyl)-amide], the half-inhibitory concentration (IC50) is 12 nM.
Regarding `O=C(NCC1(O)CCC(F)(F)CC1)c1ccc2[nH]ccc2c1Cl` [Example 4, 4-Chloro-1H-indole-5-carboxylic acid (4,4-difluoro-1-hydroxy-cyclohexylmethyl)-amide], the IC50 is 42 nM.
As to `O=C(N[C@H](CO)C1CCC(F)(F)CC1)c1ccc2[nH]ccc2c1Cl` [Example 5, 4-Chloro-1H-indole-5-carboxylic acid [(S)-1-(4,4-difluoro-cyclohexyl)-2-hydroxy-ethyl]-amide], the IC50 came out at 77 nM.
As to `Cn1ccc2c(Cl)c(C(=O)NCC3(O)CCCCC3)ccc21` [Example 6, 4-Chloro-1-methyl-1H-indole-5-carboxylic acid (1-hydroxy-cyclohexylmethyl)-amide], the half-inhibitory concentration (IC50) amounted to 211 nM.
The same measure for `Cn1ccc2c(Cl)c(C(=O)N[C@H](CO)C3CCCCC3)ccc21` [Example 7, 4-Chloro-1-methyl-1H-indole-5-carboxylic acid ((S)-1-cyclohexyl-2-hydroxy-ethyl)-amide]: 50 nM; for `O=Cc1c[nH]c2ccc(C(=O)N[C@H](CO)C3CCCCC3)c(Cl)c12` [Example 8, 4-Chloro-3-formyl-1H-indole-5-carboxylic acid ((S)-1-cyclohexyl-2-hydroxy-ethyl)-amide]: 198 nM.
Turning to `O=Cc1c[nH]c2ccc(C(=O)NCC3(O)CCCCC3)c(Cl)c12` [Example 9, 4-Chloro-3-formyl-1H-indole-5-carboxylic acid (1-hydroxy-cyclohexylmethyl)-amide], the IC50 is 1150 nM.
`O=C(NCC1(c2cnc(C(F)(F)F)nc2)CCCCC1)c1ccc2[nH]ccc2c1Cl` [Example 11, 4-Chloro-1H-indole-5-carboxylic acid [1-(2-trifluoromethyl-pyrimidin-5-yl)-cyclohexylmethyl]-amide]: the IC50 is 4.1 nM.
Turning to `O=C(NCC1(c2ccc(Cl)nc2)CCCCC1)c1ccc2[nH]ccc2c1Cl` [Example 12, 4-Chloro-1H-indole-5-carboxylic acid [1-(6-chloro-pyridin-3-yl)-cyclohexylmethyl]-amide], the concentration for half-maximal inhibition (IC50) was 3.2 nM.
For `O=C(NCC1(c2ccc(C(F)(F)F)nc2)CCCCC1)c1ccc2[nH]ccc2c1Cl` [Example 13, 4-Chloro-1H-indole-5-carboxylic acid [1-(6-trifluoromethyl-pyridin-3-yl)-cyclohexylmethyl]-amide], the IC50 is 17 nM.
`O=C(NCC1(c2ccc(Cl)nc2)CCC(F)(F)CC1)c1ccc2[nH]ccc2c1Cl` [Example 14, 4-Chloro-1H-indole-5-carboxylic acid [1-(6-chloro-pyridin-3-yl)-4,4-difluoro-cyclohexylmethyl]-amide]: the IC50 turned out to be 4.5 nM.
With `O=C(NCC1(c2ccc(Cl)cc2)CCCCC1)c1ccc2[nH]ccc2c1Cl` [Example 15, 4-Chloro-1H-indole-5-carboxylic acid [1-(4-chloro-phenyl)-cyclohexylmethyl]-amide], the half-inhibitory concentration (IC50) was determined as 238 nM.
As to `O=C(NCC1(c2ccc(C(F)(F)F)cc2)CCCCC1)c1ccc2[nH]ccc2c1Cl` [Example 16, 4-Chloro-1H-indole-5-carboxylic acid [1-(4-trifluoromethyl-phenyl)-cyclohexylmethyl]-amide], the IC50 stood at 442 nM.
As to `O=C(NCC1(c2cccnc2)CCCCC1)c1ccc2[nH]ccc2c1Cl` [Example 17, 4-Chloro-1H-indole-5-carboxylic acid (1-pyridin-3-yl-cyclohexylmethyl)-amide], the IC50 came to 14 nM.
